The domain aggregation screens of Martell et al. (2025)

Test: soluble fraction after stress (log2 fold change); higher = more stays soluble; pooled small domains, quantitative proteomics
Settings: stress: 75 degC
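Also: 20 min heating vs room temperature control held 20 min.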

Row | Sequence | soluble fraction (log2)
1 | HMAAVLKQGSQGDSVKTVQQKLIRWGYLKGSADGIFGAKTKAAVIAFQKKNGLTADGIIGTRTAQALGISL | -1.78
2 | HMALDYYGVLGVNQDATNREIKSAYRKLARELHPDVNPSEEAAEKFKDVTTAYEVLSDPEKRRIVDMGGDP | 0.0261
3 | HMATGTVKWFNSTKGYGFIAPDDGGKDIFVHISAVERAGLTGLQDNQKIDFEMQSGRDGRASASDLKL | -0.11
4 | HMGGYEVQSGDTLWDLAVRFYGSGAKASAIYEANRDVIEEEAKKRGKGSSSSGYWIFPGTKLAI | -0.275
5 | HMLFDTARAYTDSEVKLGEAFDGIRTEVYIATKTAAQNAEDFWKDLHTSLTNLRTDYIDLYQFH | 0.126
6 | HMNNLYETLGVERTASQNEIKKAYRVLARKYHPDANPDDAVAEQKFKEVAMAYEILSDDQKREEYDRFGS | 0.28
7 | HMRADRLISLVLLLQTRGRMTARELADELEVTERTIYRDVIALSSAGIPLYTDRGPGGGIALLDS | -1.77
8 | HMSENDYAILGVKESDSNEEIKKAFRRLAIENHPDKIEHLGETARKKAELNFSKINEAYQRIKKQRG | 0.0683
9 | HMSGKWALLVLFTLNKSNGTPVRFKQLERDIPDISQKMLTSVLRSLESDGLVSRKAYAEIPPRVEYSLT | -1.14
